± gives the standard deviation. The entries are a selection whose mix differs from that of the whole data set.
Test system: MIWI (PIWIL1) piRISC loaded with L1MC piRNA (30 nt)
Experiment: pre-steady-state target cleavage rate (min^-1); MIWI and MILI are mouse PIWI proteins and EfPiwi is from a freshwater sponge; tags in brackets are library labels; higher = faster piRNA-guided slicing of the target
Conditions: guide: L1MC piRNA 5'p-UAACUAAAUACUAUGCAAGCUGUAGGUCCU
In short: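 A burst-and-steady-state fit was used to obtain the pre-steady-state cleavage rate. The input data were sequencing reads of uncleaved targets, normalised to depth and to weakly complementary targets, from a […] transcribed, DNA-blocked target RNA library mixed with 1 nM active affinity-purified piRISC holding one synthetic guide, with or without 500 nM GTSF1 partner protein, in HEPES–potassium acetate buffer at 33 °C for 0–8 or 0–960 min. Three trials were pooled and k3 was capped at 0.0001 min^-1.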

[1] = auxiliary factor: 500 nM mouse GTSF1
[2] = auxiliary factor: none (no GTSF1)
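Further: 1 nM active piRISC with 0.1 nM target library at 33 °C single turnover.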

Sequence | pre-steady-state target cleavage rate [1] | pre-steady-state target cleavage rate [2]
UCCUGGAUGUGGUUGCAUAGUAUUAAGUUA | 0.0068 ± 0.0047 | 
UCCUGGAUCAGCUAGCAUAGUAUUUACAAA | 0.275 ± 0.063 | 
UCCUGGAUGAGCUUGCAUAGAAUUUACAAA | 0.00798 ± 0.0045 | 
UCCUGGAUGAGCUAGCAUAGUAUUUAGAAA | 0.124 ± 0.029 | 
AGGACCUACAGCUUGCAUAGUUAAAUCAAA [g10:g30:cont:t1A] | 0.159 ± 0.046 | 
UCGACCUACAGCUUCGAUAGUAUUUAGUAA | 0.413 ± 0.042 | 
UCCUGGAUCAGCUUGCAUAGUAAAUAGUAA | 0.17 ± 0.038 | 
UCCUGGAUGAGCUUGCAAUGUAUUUAGUAA | 0.0113 ± 0.0031 | 
UCCACCUACAGCUUGCAUUGUAUUUAGAAA | 0.111 ± 0.018 | 
UCCUGGUACAGCUUGGUAAGUAUUUAGUUA | 0.0196 ± 0.005 | 
UCCUGGAACACCUAGCAUAGUAUUUAGUUA | 0.151 ± 0.031 | 
UCCUGGAUGUGCUUGCAAGUAUUUAGUUA | 0.00394 ± 0.0033 | 
UCCUGGAUGAGCUUCCAUAGUAUUUAGUUA | 0.0314 ± 0.014 | 
UCCUGCUACAGCUUGCAUAGUAUUAAGAUA | 0.196 ± 0.041 | 
UCCUGGAUGUCGAACGUAAGUAUUUAGUAUA | < 0.0001 | 
UCCUGCUACAGCUAGCAUAGUAUUUAGAAA | 0.328 ± 0.054 | 
UCCUGGUACAGCUACCAUAGUAUUUAGAAA | 0.015 ± 0.0072 | 
UGGACCUACAGCUUCCAUAGAAUUUAGUUA | 0.00637 ± 0.0025 | 
AGGACCUACAGCUUGCAUUCUAUUUUCAAA | 0.132 ± 0.044 | 
UCGACCUAGAGCUUGCAUAGUAUUUUCAAA | 0.205 ± 0.035 | 
UCCUGGAACAGCUUGCAAUGUAUUUAGAAA | 0.0487 ± 0.015 | 
UCCUGGAUGUCGUUGCAUAGUAUUCUAGUUA | 0.00471 ± 0.004 | 
UCCUGGUACAGCUUGCAUAGUAUAAUCAAA [g8:g24:cont:t1A] | 0.131 ± 0.029 | 
UCCUCCUACUCGUUGCAUAGUAUUUACAAA | 0.127 ± 0.022 | 
UCCUGCUACAGCUUCGAUAGUAUUUAGUAA | 0.291 ± 0.035 | 
AGGACCUACAGCAUCCAUAGUAUUUAGUUA | 0.319 ± 0.053 | 
UCCUGGAUGUCGAUUCAUAGUAUUUAGUUA | 0.0103 ± 0.0043 | 
UCGACCUACAGCUUCCAUUGUAUUUAGUUA | 0.159 ± 0.019 | 

Sequence | pre-steady-state target cleavage rate [1] | pre-steady-state target cleavage rate [2]
UCCUCCUACAGGUUGCAUAGUAUUUACAAA | 0.201 ± 0.034 | 
UGGACCUACACGAUGCAUAGUAUUUUCAAA | 0.0643 ± 0.014 | 
UCCUGGAUGUCGAACGUAAGUAUUUACAUA |  | < 0.0001
AGGACCUACAGCUUCCAUAGUUUUUAGUUA | 0.0451 ± 0.016 | 
AGGACCUACAGCUUGCAUAGAUUUUACAAA | 0.304 ± 0.1 | 
UCCUGGUACAGCUUGCAUAGAUAUUAGUUA | 0.0103 ± 0.0046 | 
UCCUGGAUGUCCUUGCAGAGUAUUUAGUUA |  | 0.00314 ± 0.002
UCCUGGAUGUCGAACGUAUCUAUUUAGCUUA | < 0.0001 | 
UCCUGGUUGUGCUUGCAUAGUAUUUUCAAA | 0.00948 ± 0.0058 | 
UCCUGGAACAGCUUGCUAUAGUAUUUAGUUA | 0.0192 ± 0.006 | 
UGGACCUACAGCUUGCAUAGUAAUUACAAA | 0.135 ± 0.029 | 
UGGACCUACAGCUUGCAAUGUAUUUACAAA | 0.0217 ± 0.0068 | 
UCCUGGUACAGGAAGCAUAGUAUUUAGUUA | 0.165 ± 0.022 | 
UCCACCUACAGCUUGCUAGUAUUUAGUUA | 0.0583 ± 0.014 | 
UCCUCCUACAGCUUGCACUAGUAUUUAGUUA | 0.0575 ± 0.021 | 
UGGACCUACAGCUUGCAUUAGUAUUUAGUUA | 0.0108 ± 0.0044 | 
UCCUGGAUGAGCUUGCAUAGUAAUAAGUUA | 0.00942 ± 0.0042 | 
UCCUGGAUGUGCUUGCAUAGUAUAUUGUUA | 0.0237 ± 0.0084 | 
UCCUCCUACAGCUUGCAUAGCUAUUUAGUUA | 0.0221 ± 0.01 | 
UGGACCUACAGCAUGCAUAGUAUUUUCAAA | 0.304 ± 0.052 | 
UCCUGGAUGUCGAUGCAUAGUAUUUUAGUUA | 0.00428 ± 0.0031 | 
UCCUGGAUGUCGAACGAAAGUUUUUAGUUA | < 0.0001 | 
UCCUGGAACACCUUCCAUAGUAUUUAGUUA | 0.00593 ± 0.0046 | 
UCCACCUACAGCUUGCUAUGUAUUUAGUAA | 0.0482 ± 0.011 | 
UCCACCUACAGCAAGCAUAGUAUUUAGAAA | 0.243 ± 0.035 | 
UGCACCUACAGCUUGCAUAGUAUUUUCAAA | 0.238 ± 0.032 | 
UCCUGGUACAGCUUGCAUAGAAUUUUCAAA | 0.0135 ± 0.0085 | 
